The supplement of paper PMC11417369
This is one part of the list.

What follows are sequences tested on PfSIP2 AP2 domain 1 (GST-tagged) (assay: gcPBM binding intensity (ln(normalized median fluorescence intensity)); higher = stronger DNA binding).
Outline: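 For binding intensity, the highest Masliner-normalised natural-log median intensity across replicate spots of either probe orientation was taken. Protein bound to the array was stained with Alexa488 anti-GST antibody and scanned at 488 nm. The protein, GST-tagged P. falciparum DNA-binding domains from E. coli at about 25 μg on average, had been applied for 1 h to an Agilent 4 × 180k array of primer-extended double-stranded 36-bp intergenic genomic probes and negative controls.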

| Sequence | gcPBM binding intensity (ln) |
| --- | --- |
| ATATATATATATGTTAGTACATAACAAGTGTGCATA [XGTACX_site1527] | 9.09 |
| GATAAAATGAGACCAGTGCATTATTAGTTGTACACC | 8.33 |
| TTTTTTGCTAAGTGTACACAAATGTTTATTAATTTA [CACACA_site5859] | 7.48 |
| TGTGCTTATCCTAACACACACAACATATAAGAAAAA [CACACA_site3319] | 7.19 |
| AAAAAATAAAAAATATGTACACATTCAAAATTTTAC [XGTACX_site8479] | 6.91 |
| TATACATATTTATACACACACACATATATTTATATA [CACACA_site6727] | 7.11 |
| AAAAAGAAAAAAAACACACACAAATATAAATAAATA [CACACA_site1183] | 6.92 |
| ATATATATATATATATGTACATATTACATTACTTAT [XGTACX_site749] | 9.53 |
| CAAATACACCAACACACACACACAAAAAAAAAAAAA [CACACA_site514] | 7.14 |
| TAAGTACGACTTGACACACATACACATATATATATA [CACACA_site1286] | 9.3 |
| ATTACCAACAGATCTTGTACATATTAAAGCATCTTA [XGTACX_site2361] | 6.99 |
| ATATACAAAGAAGCAGTGCATATTTTCTTATTTATG [GTGCAC_site9567] | 8.02 |
| TGAAAGAATAGAATGAGTACTAATTTAAATTACACT [XGTACX_site1120] | 6.72 |
| TTGATTTCATTTTAAGTGCATAACTAATATTATATA [GTGCAC_site9713] | 8.07 |
| TTCTTTATATATTTTTGTACATATTTATTTTTAGAG [XGTACX_site6757] | 7.26 |
| ACTATATATATAAGTGCATGTTCATTATACCTAAAG [TGCATGCA_site696] | 9 |
| AAAAATTCATTTTTATGTACGTACAAATTCTTCGTT [XGTACX_site2471] | 7.33 |
| TTTTAAAAAAATATAATACACACCAAAAATATGCAC [CACACA_site2131] | 9.9 |
| AGTAAATTATATATCTGTACATATATATATGTGTAT [XGTACX_site5519] | 7.15 |
| CTCACAAATGAATACACACAAACATATATATTTATA [CACACA_site1620] | 7.11 |
| AAAAAAATATAAATACGTACATATATATATATATAT [XGTACX_site432] | 9.47 |
| CTATTCTATTTTTATTGTACATATATATAATTTGAA [XGTACX_site389] | 7.37 |
| TGGAATAATACGCGTACACACATATAAATATTAATA [CACACA_site6211] | 7.52 |

| Sequence | gcPBM binding intensity (ln) |
| --- | --- |
| ACACATGAATATTGTAGTACGGCAATTAATATAATA [XGTACX_site4589] | 6.82 |
| ATATAATGGCTAAATAGTACAATATAATATTTTTTA [XGTACX_site8922] | 6.89 |
| AGAAAGGAAAAAACCTCACACATGCTTTTAATAGTA [CACACA_site4602] | 6.77 |
| TTTTTTATATTGTGATGTACAAATTTTAAAATGTAG [XGTACX_site1875] | 7.27 |
| AAATTCGTTATAAAAACATGCAACGATCAACATTGT [TGCATGCA_site844] | 6.81 |
| TTACTCTTTATATAATGTACATATATATATATATTA [XGTACX_site2624] | 7.45 |
| GTGTGGAGTTACAAAGAGGAGAACCTCACAGTAATC [CACACA_negctrl_site527] | 6.91 |
| ATATATATATATATAATACACACTTATGAAATGTCT [CACACA_site1827] | 9.47 |
| TTACACATATTTTTAATTATTCTGAATTCAAAAAAA [CACACA_negctrl_site1706] | 6.91 |
| ATAATCATAAAATAAACACACATATATAAATATATT [CACACA_site276] | 6.95 |
| GTAATATTAAAATATACACACATAGAATATATATAT [CACACA_site4391] | 8.8 |
| TGAAAAAAGAAAAATACACACATATAACATAATATA [CACACA_site7126] | 6.67 |
| AATCTATATTAATACACACACACATATATTTATATA [CACACA_site7732] | 7.25 |
| TTTATTTTGACAGATTGTACACTTTATACATGTTTT [XGTACX_site2356] | 7.07 |
| GTATATATTTCCAGAAGTACTTATTTTTATGTATGT [XGTACX_site4079] | 7.26 |
| TTATATTTATTGATATGTACATATTATAATTAATTA [XGTACX_site586] | 7.22 |
| TGATTACATATGATGTGTACCTAATTTTGTTTACAC [XGTACX_site7032] | 6.88 |
| AAAAATGCCAGAAAACGTACTCGGATTTTCTAATAT [XGTACX_site6552] | 6.75 |
| AAAACACGCGGACACACACACACACCCACCCATATA [CACACA_site8688] | 7.03 |
| TTTTAATATTTTGCCTGTACATAAAAGTGAGAAGAT [XGTACX_site2503] | 7.73 |
| TATAAAGGTTGGTACTGTACAATATAAGAAAAAAAA [XGTACX_site435] | 7.03 |
| AAATAGTTCATAAAAAGTACAAAATTTTTATCCGTA [XGTACX_site2796] | 6.83 |
| ATCATTCATTTAACAACACACAACATATTTATCATA [CACACA_site1041] | 7.14 |

| Sequence | gcPBM binding intensity (ln) |
| --- | --- |
| TATATATTATATAAGAGTACATATAATTATAGTTTT [XGTACX_site5039] | 6.93 |
| AGGCTATAATACCATACACACATTTATAAAATAACA [CACACA_site6990] | 7.16 |
| TAAAAATTTGATCAAACACACGTTGCATAAATTATA [CACACA_site6040] | 7.04 |
| TTTTTGTAAACCTACTTCATAATTATTTATATCTAT [XGTACX_negctrl_site599] | 6.98 |
| ACATATATTTATATATGTACATATGATATATACATA [XGTACX_site6122] | 7.12 |
| CTTTTGTATATTATATGTACACACAATAAGTTAATA [XGTACX_site1684] | 7.25 |
| TACATATAAACAATAACACACACCTAGGTACATGGA [CACACA_site8178] | 6.86 |
| AATTAACAAAAACACACACACACACCCACAAAAAAA [CACACA_site517] | 7.19 |
| ATTGTTAAATATAATACACACGTTTTTAAAAATATA [CACACA_site5239] | 7.17 |
| AAAAAAAAAAAACATACACACACATATATATATATA [CACACA_site8452] | 9.32 |
| TAAAAATAAATAAATACATGCACCAAAAATAAATTT [TGCATGCA_site801] | 10.2 |
| ATTGCCATTGTTAATGCATGTAACAATTCAGCTCAT [TGCATGCA_site56] | 6.96 |
| AAAATTATTTAGTAAGTGCAAAAAAAAAAAAAAAAA | 8.21 |
| AATTTGATTATAAATTGTACATATATATATTAAAAG [XGTACX_site5461] | 7.25 |
| AAGAAAAAAAAAAAAACACACATATATTTATTTATA [CACACA_site7042] | 6.78 |
| TATACACATAGACACACACACAAAAAAAAAAAAAAA [CACACA_site6338] | 7.01 |
| GAAAGAAAAAATGATGAATAGAGATCAAATCTATAT [XGTACX_negctrl_site28] | 6.84 |
| TTGAGAAAAATTAATGGTACACATATTATAAGTATA [XGTACX_site6539] | 7.09 |
| TGTATAACATTTAGGTGTACAATTATATATAATATA [XGTACX_site8131] | 7.18 |
| TAATTGTACACATGCACACACAAATATTATAGATGT [CACACA_site6528] | 7.64 |
| TGACATATTATTAGGTGGTCACGTCTCCACGTCAAG [XGTACX_site7943] | 7.06 |
| AAACGGGAGAAATAAAAATAAAAATAATAAAACAAA [XGTACX_negctrl_site586] | 6.77 |
| TATACTCATGGACACACACACATACACAGACATACA [CACACA_site5024] | 7.37 |

| Sequence | gcPBM binding intensity (ln) |
| --- | --- |
| TTCATATATAATTGTACACACAAAAACGACATTGTG [CACACA_site2074] | 7.09 |
| TAAATATGAGGGAACACACACATGATATATAAATTC [CACACA_site2400] | 6.85 |
| GGAAATAAAATTAAATGTACGAAAACTCATTAAATT [XGTACX_site4274] | 6.75 |
| TAAATAAAAAGACACACACACATATTTATATTTATA [CACACA_site7135] | 6.89 |
| ATATTAAAAAGGAAATGTACGTAATGAAGATCAAGT [XGTACX_site3138] | 7.86 |
| TAAATTGGTGCAAAGTGTACATATATATCTTTCCTA [XGTACX_site5458] | 11.4 |
| GAGAAAAATATATACACACACATAAATATATACATA [CACACA_site1895] | 6.98 |
| AAATATCAACTCAAATGTACAAATCACAAAAATGTA [XGTACX_site5344] | 6.9 |
| ATATATGATGTATTTGTGCACATATATATATTATTA [GTGCAC_site9471] | 8.94 |
| TTAAAAAACATTTGAACATGCAATTGTATATGTAGA [TGCATGCA_site334] | 6.84 |
| ATATATACCTATATTACACACTTCTTATTCTAAGAA [CACACA_site7421] | 6.98 |
| ATTGTTACATAAAATGCACACTTTCAAATATGCTAA [CACACA_site5600] | 7.39 |
| TATTTATTAAGACACACACACACACGCACAAAATAA [CACACA_site6254] | 7.59 |
| TATACACATATATATAGTACATATATAATTTACTAT [XGTACX_site1849] | 7.06 |
| AGTATTCTAATTTTTAAACACACAAATATAAATAAG [CACACA_site9029] | 7.07 |
| AGGGTTCATATATTAACACACACATACATATTATAT [CACACA_site8959] | 6.94 |
| AAACAAAAGGAAAACATATATATATTAAATGTATAT [CACACA_negctrl_site1663] | 7.14 |
| TGAAATTAAATATATACACACATATATATTTATATG [CACACA_site3516] | 6.82 |
| GCAAAATAACAATGTTACACTTATAAAATTGAGGCA [GTGCAC_negctrl_site68] | 6.87 |
| TTTTTTTTTCTCCATACACACTTGATAAAACTTTTT [CACACA_site4512] | 6.88 |
